# From the supplement of paper PMC3334620
# In all, about 33,000 sequences were measured (“E-score (-0.5 to 0.5)”: median about -0.054, highest 2% from about 0.35 on). Some of the results follow.
# Biological target: T1, Stb5 (UniProt P38699)
# T1 sequence: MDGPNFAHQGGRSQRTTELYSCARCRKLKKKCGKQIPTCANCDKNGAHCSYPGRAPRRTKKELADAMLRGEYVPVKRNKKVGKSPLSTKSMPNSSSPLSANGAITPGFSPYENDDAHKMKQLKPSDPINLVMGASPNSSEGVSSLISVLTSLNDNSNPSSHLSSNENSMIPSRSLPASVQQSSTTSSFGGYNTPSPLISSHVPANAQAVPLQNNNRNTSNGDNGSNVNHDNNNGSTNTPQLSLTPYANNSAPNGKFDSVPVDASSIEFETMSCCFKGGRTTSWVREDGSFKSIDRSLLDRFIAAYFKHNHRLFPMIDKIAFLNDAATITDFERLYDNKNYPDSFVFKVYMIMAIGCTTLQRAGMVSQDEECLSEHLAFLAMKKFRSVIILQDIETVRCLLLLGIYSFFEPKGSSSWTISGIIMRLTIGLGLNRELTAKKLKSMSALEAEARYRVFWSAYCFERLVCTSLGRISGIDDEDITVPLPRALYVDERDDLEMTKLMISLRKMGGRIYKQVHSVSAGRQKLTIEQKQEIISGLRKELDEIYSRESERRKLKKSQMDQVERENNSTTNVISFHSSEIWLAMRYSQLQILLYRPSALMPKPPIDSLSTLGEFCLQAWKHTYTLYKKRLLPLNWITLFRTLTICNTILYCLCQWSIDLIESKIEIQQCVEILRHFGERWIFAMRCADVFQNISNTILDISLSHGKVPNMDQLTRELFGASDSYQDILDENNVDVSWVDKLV
# Assay: PBM E-score (8-mer binding enrichment) (E-score (-0.5 to 0.5)); higher = stronger / more preferred TF binding; most listed sequences are background and not binding sites
# Conditions: protein concentration: 200 nM; construct: GST-full length
# Description: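 Universal 'all 10-mer' protein binding microarrays (Agilent AMADID 015681) probed with GST-tagged S. cerevisiae TFs (full-length or DBD) made by in vitro transcription/translation (PURExpress), about 100-200 nM. Bound TF was detected with fluorescent anti-GST. Each ungapped 8-mer (which stands for itself and its reverse complement) is scored by the PBM enrichment score (E-score), a modified Wilcoxon-Mann-Whitney statistic from -0.5 to +0.5, computed with the Universal PBM Analysis Suite. Scale: above 0.35 generally sequence-specific binding.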
row,Sequence,PBM E-score
1,CGGAGTAA,0.326
2,GACGTGGC,-0.00293
3,AGAAATAT,0.0277
4,CATCAACC,-0.058
5,CATTTTGC,0.0955
6,GGTCAACA,0.034
7,AGGGATAC,-0.112
8,AACCAGCG,-0.0594
9,GTTGCTGA,-0.039
10,CCTTTTCC,-0.13
11,ACAAACAC,0.11
12,CGCTACCA,0.156
13,AAACGAAC,-0.193
14,GGAGATGA,-0.125
15,TACGAGCA,-0.0236
16,GGTGATGA,0.0277
17,CAACACCA,-0.1
18,ATGAAGCA,-0.066
19,ACTTTGAC,-0.11
20,ACTAGAAA,-0.104
21,AACCCAAC,-0.152
22,GATTCCTA,-0.084
23,TAGTCCCA,-0.0173
24,CATTAGCG,0.122
25,AGCGCATG,-0.053

row,Sequence,PBM E-score
1,AGAGATGA,-0.292
2,AGCAGAAA,-0.0257
3,ATGCTCAG,-0.166
4,GTTCATGA,-0.152
5,CTCAATAC,-0.00735
6,ACACCCAG,-0.0423
7,TCCCTTCA,-0.152
8,AACATCGG,0.215
9,AATAAGGG,-0.258
10,CTATCCAA,-0.0612
11,GGCACCTA,0.0808
12,AGCATCTA,-0.168
13,CACATCGG,0.235
14,AAACATTG,-0.0452
15,AGTCGAGC,-0.308
16,AGTAATTC,0.16
17,AGAGAATA,0.0418
18,GTGCATTA,0.0507
19,GCAGCCTA,-0.171
20,TGTATACA,0.0199
21,CGAATCCA,-0.134
22,ATTTAAGC,0.054
23,CTTCATTA,-0.111
24,GGACCAAC,0.111
25,TAGCTTCA,-0.214

row,Sequence,PBM E-score
1,CGACATGA,0.0732
2,AGCTGACG,-0.0991
3,ATATTCTA,-0.0958
4,TAGTGATA,-0.201
5,CTACTTCC,0.0391
6,AAATGGGC,-0.165
7,CGAGGTAC,-0.0641
8,CATATGTA,-0.309
9,CTGTCCTC,-0.187
10,GACGTAGC,0.0409
11,ACGCTACG,-0.187
12,ATAGAGCA,-0.0745
13,GTCAGGTA,-0.145
14,CGTAAACA,0.115
15,GTATGTGA,-0.207
16,TGCGTGAA,0.122
17,CGAAACAG,-0.103
18,AAGGGGTA,-0.148
19,AACACCGA,0.479
20,AGGTGCAT,-0.292
21,CAGCTGTC,-0.31
22,GCTACCAC,-0.143
23,AACTCTCC,-0.0352
24,AGACATGC,-0.167
25,AGCCACAC,-0.266

row,Sequence,PBM E-score
1,AAACTCAT,0.0594
2,CGCAGATC,0.0136
3,CTGATACA,-0.0948
4,CGACTACG,0.0538
5,CGAGTCAA,-0.0935
6,CGGCGCCG,0.309
7,TAAACTCA,-0.0939
8,AAGCCTAA,-0.0259
9,CTAGACTC,-0.0615
10,ATGCATGA,-0.11
11,CATGAGCA,-0.162
12,AAGTCTCC,-0.0985
13,CAATTGTG,-0.133
14,ATACCGTC,0.357
15,ACGCGTCA,-0.109
16,GTCTGACA,0.0471
17,GAATCCGC,0.0516
18,TAACATCA,-0.16
19,ACCCAGGG,-0.146
20,CCGACCGC,0.284
21,TAGGACGA,-0.251
22,AGACCGTG,0.193
23,ACGTGAGC,-0.289
24,GCATCGAA,-0.199
25,AATCTACT,-0.134

row,Sequence,PBM E-score
1,AGCTCGCC,-0.178
2,GTCTTGCA,0.0877
3,GCATCACA,-0.0503
4,GCCTACAC,-0.0763
5,ATTCGTGG,-0.324
6,CTGCGGGA,0.144
7,ATAAGGAT,-0.188
8,CGTAATGA,0.016
9,CTTGAAGA,-0.229
10,ACAGCTTA,-0.289
11,ACTATACA,-0.138
12,TAATATGA,0.213
13,CGAGGGTA,0.012
14,TGATCCAA,-0.114
15,AAGTGGCC,-0.175
16,ATTGCGTA,-0.0853
17,CATCCGCG,0.192
18,ATAGCTAT,-0.151
19,AATGACGT,-0.172
20,AAGTACTA,-0.0229
21,CAATGAGC,-0.157
22,AAGTCATT,-0.361
23,AGAGGTAG,-0.0308
24,TATAAAAA,0.0224
25,CGAGCCCA,-0.196

row,Sequence,PBM E-score
1,ACCGCTAC,0.395
2,AGTCGCCC,-0.0584
3,CGGCGTCC,0.277
4,GTAAAACA,-0.168
5,AGTAGTTA,0.0553
6,CTCGAGAA,-0.178
7,ATGCTAGG,-0.088
8,CGCTATGA,0.0568
9,AGTCGGAT,0.306
10,CGGCATCA,0.387
11,GCTGGTAA,-0.0826
12,GCTCCATA,-0.0544
13,CGTGCTCC,-0.122
14,ACCCCGGG,0.392
15,ATTATCGG,0.327
16,GGGAGTCA,-0.163
17,GACAGAAC,0.00835
18,ACCCCATG,0.029
19,CTGCAAGA,-0.0254
20,ATAACCAT,-0.167
21,TTCCGGAA,0.212
22,CAAAGAAA,-0.125
23,GACTCTCC,-0.0655
24,AAATCCGT,0.281
25,GACTGACA,-0.125

row,Sequence,PBM E-score
1,ATTCGGTG,0.269
2,AGAGTCCA,-0.268
3,AAGCTACT,-0.277
4,ACCTTGCG,0.039
5,CTACCGGC,0.238
6,CACAAAAA,0.00822
7,ATGTGCAA,-0.179
8,CACTAGCC,-0.00479
9,ATATGAAG,-0.0551
10,GCTGGTTA,-0.142
11,CATACCAG,-0.0529
12,AAAGTTAG,-0.136
13,ATGTCGCC,0.189
14,GCGCCCCA,-0.019
15,AACAGCTC,-0.148
16,AGGAAATG,-0.125
17,TAAGTAAA,-0.0809
18,ACGATTAT,0.0316
19,AGCAGGTG,-0.0873
20,AACCGCCT,0.0427
21,AAGCTAAA,-0.0838
22,CAGTTGCG,-0.0668
23,ACAGTTTG,-0.267
24,CGGTCACC,0.0906
25,ATTTTGAG,0.05

row,Sequence,PBM E-score
1,AGCGGGCA,0.248
2,CAAATGGA,0.00904
3,AGCCTATC,-0.0823
4,CAAGCCAG,-0.302
5,ACTGTACG,-0.0641
6,AATCCACC,-0.0679
7,ACACTGGT,-0.141
8,ATAACGTG,-0.0491
9,CCGTACAA,0.129
10,CGAGCCAG,0.0317
11,CCTGATGA,-0.277
12,GACAACGC,-0.0522
13,AAGAATCG,0.214
14,AGCGTCAG,-0.218
15,ACTTCGTA,-0.229
16,ACTTACCC,0.0118
17,AAGTGAGC,-0.32
18,TAAGCCGA,0.074
19,CCCACACA,-0.187
20,ACGACCTG,-0.184
21,GGGGATGA,-0.0902
22,GTAAGCTA,-0.0178
23,ACTTCTGA,-0.166
24,ATAAACCC,0.373
25,CAAACAAC,0.0293

row,Sequence,PBM E-score
1,ACTACCTC,-0.0145
2,ACGTGCAG,-0.189
3,CAATTGAA,-0.12
4,GTTATGAA,0.113
5,CCGTTGCA,0.171
6,CGCTGAAG,-0.01
7,ACCTACCG,0.0519
8,GAGTCATC,-0.211
9,AACTCCTT,0.119
10,CTGGATGC,-0.0435
11,ATCAATTG,-0.152
12,GCCACCCA,-0.113
13,ACCTCGCG,0.12
14,CTCTTTGA,-0.164
15,ATGAAGGA,-0.0121
16,GTAAGTAC,0.0626
17,CTTATGCA,-0.0947
18,ACCAAATC,-0.0624
19,AGATTACC,0.135
